In article PMC4336329 (PLoS ONE, 2015):
Among all 310,000 compounds or so, about 14,000 (4.5%) showed an effect of 50% or more. The effect is printed as a negative number. Some of the results follow.

biological target: human ether-à-go-go-related gene (hERG) potassium channel (human, UniProt Q12809); assay: primary screen, population patch clamp on CHO cells stably expressing hERG
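Further: peak tail current of the secondary pulse compared with the same well before compound.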

human ether-à-go-go-related gene (hERG) potassium channel, sequence (Q12809 whole entry, looked up): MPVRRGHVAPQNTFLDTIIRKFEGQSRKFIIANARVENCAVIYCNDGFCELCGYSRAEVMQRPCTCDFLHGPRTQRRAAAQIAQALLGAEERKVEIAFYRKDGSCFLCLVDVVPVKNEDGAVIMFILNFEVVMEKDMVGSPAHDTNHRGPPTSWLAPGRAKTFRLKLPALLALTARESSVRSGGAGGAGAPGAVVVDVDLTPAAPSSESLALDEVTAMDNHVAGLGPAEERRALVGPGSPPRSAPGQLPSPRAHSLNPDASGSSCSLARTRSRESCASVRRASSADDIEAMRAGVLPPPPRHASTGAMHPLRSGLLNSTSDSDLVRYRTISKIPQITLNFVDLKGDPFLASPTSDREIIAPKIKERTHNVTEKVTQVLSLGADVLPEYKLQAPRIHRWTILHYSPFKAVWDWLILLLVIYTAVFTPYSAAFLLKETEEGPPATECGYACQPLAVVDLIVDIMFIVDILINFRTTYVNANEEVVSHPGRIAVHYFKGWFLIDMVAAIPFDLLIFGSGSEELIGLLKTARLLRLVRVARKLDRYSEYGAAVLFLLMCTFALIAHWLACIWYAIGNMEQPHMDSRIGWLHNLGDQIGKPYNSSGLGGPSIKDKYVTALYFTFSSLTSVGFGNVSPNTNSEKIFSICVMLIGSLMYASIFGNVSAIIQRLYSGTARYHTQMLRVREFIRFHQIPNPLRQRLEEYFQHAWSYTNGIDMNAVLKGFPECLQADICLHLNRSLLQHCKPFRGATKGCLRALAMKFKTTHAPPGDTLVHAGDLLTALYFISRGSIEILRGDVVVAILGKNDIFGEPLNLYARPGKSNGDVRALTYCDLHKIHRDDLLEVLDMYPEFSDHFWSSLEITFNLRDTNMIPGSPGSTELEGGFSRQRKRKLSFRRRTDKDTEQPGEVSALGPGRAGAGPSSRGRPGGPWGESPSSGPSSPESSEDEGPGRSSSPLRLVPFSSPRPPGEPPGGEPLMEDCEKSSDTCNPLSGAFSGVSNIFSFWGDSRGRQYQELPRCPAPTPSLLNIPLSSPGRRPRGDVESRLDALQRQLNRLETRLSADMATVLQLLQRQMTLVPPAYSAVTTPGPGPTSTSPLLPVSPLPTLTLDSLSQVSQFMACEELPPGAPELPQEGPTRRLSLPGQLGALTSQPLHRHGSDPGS

SMILES	hERG current change (%, negative = inhibition) at 10uM [%]
Cc1nnsc1S(=O)c1ccccc1Cl (stereo not drawn)	22.6
CCc1cccc(NC(=O)CCS(=O)(=O)c2cccc3nonc23)c1	-5.55
CC(C)(C)OC(=O)NC(Cc1ccccc1)C(=O)O (stereo not drawn)	-50.5
CCOc1ccccc1-n1c(SCC(N)=O)nnc1-c1cccnc1	6.88
CC(C)Oc1ccc(N2CC(C(=O)Nc3ccc(N4CCOCC4)cc3)CC2=O)cc1 (stereo not drawn)	22.6
O=C(NC(=O)c1ccccc1)OCC1CCCN2CCCCC12 (stereo not drawn)	-56.7
COc1cc(/C=N/O)cc(Cl)c1OC	4.03
COCCCNC(=O)C1CCN(S(=O)(=O)c2ccc3nc4c(c(C(=O)O)c3c2)CCCCC4)CC1	4.15
CCN(Cc1ccccc1)C(=O)CCc1nc(-c2ccc(C)cc2)no1	-12.1
COc1cccc(-c2nn(-c3ccccc3)cc2C(=O)n2nnc3ccccc32)c1	-3.31
CN1C(=O)CSc2ccc(NC(=O)NCc3ccccc3)cc21	0.201
C=CCOc1c(CNc2ccc(S(N)(=O)=O)cc2)cccc1OC	2.97
O=S(=O)(Nc1nnc(C2CC2)s1)c1ccccc1	-8.13
Cc1ccc(N(C)S(=O)(=O)c2cccc(C(=O)NCC(c3ccco3)N3CCCC3)c2)cc1 (stereo not drawn)	-62.5
O=[N+]([O-])c1ccc(-c2nn(-c3ccccc3)cc2/C=N/n2c(-c3ccncc3)n[nH]c2=S)cc1	19.4
CN1CCN(S(=O)(=O)c2ccc(NC(=O)c3ccccc3F)cc2)CC1	4.77
COc1ccc2cc(C(=O)N/N=C/c3cc(OC)c(OC)c(OC)c3)[nH]c2c1	11.5
CCOC(=O)N1CCN(CC(=O)Nc2ccc(OC)cc2)CC1	-15.2
O=C(Nc1cccc(Oc2c(F)c(F)c(F)c(F)c2F)c1)N1C[C@@H]2C[C@@H](C1)c1cccc(=O)n1C2	-44.8
Cc1ccc(N2C(=O)NC(=O)/C(=C\c3cc(C)n(-c4sc5c(c4C#N)CCCC5)c3C)C2=O)cc1	-4.39
COC(=O)c1ccc(NC(=O)Nc2ccc(F)cc2)cc1	-6.29

SMILES	hERG current change (%, negative = inhibition) at 10uM [%]
CS(=O)(=O)c1ccc(C(=O)OCC(=O)Nc2cccc(S(=O)(=O)N3CCCC3)c2)cc1	-26.1
Cc1cc(/C=C2/SC(=S)N(c3cccc(C(F)(F)F)c3)C2=O)c(C)n1-c1cccnc1	7.45
CCn1cc(C2CC(=O)NC2=O)c2ccccc21 (stereo not drawn)	9.51
O=C(COC(=O)c1ccccc1NC(=O)c1ccccc1)c1ccc([N+](=O)[O-])cc1	-5.91
COc1ccc(NC(=S)N2CCN(S(C)(=O)=O)CC2)cc1	9.62
Oc1c(C(c2ccc(F)cc2)N2CCc3ccccc3C2)sc2ncnn12 (stereo not drawn)	-2.64
CCOC(=O)c1ncn2c1[C@@H]1CCNC1C(=O)c1cc(OC)ccc1-2 (stereo partly drawn)	-68.4
COc1ccc(-c2cc(C(F)F)n3ncc(C(=O)N4CCCCC4)c3n2)cc1	-26.4
Cc1nc(N2CCN(S(=O)(=O)c3ccccc3C#N)CC2)c2c(-c3cccs3)csc2n1	-3.58
CCCCCCCNC(=O)C1CC(=O)N(C)C(=Nc2ccc(OC)cc2)S1 (stereo not drawn)	4.5
O=C(CSc1nc2ccc(NC(=O)c3ccccc3C(=O)O)cc2s1)Nc1c(Cl)cccc1Cl	16.8
Cc1ccc(CN2CCN(C(=O)c3cccc4ccccc34)CC2)cc1.O=C(O)C(=O)O	2.56
CCOc1cc(/C=N/NC(=O)c2ccc(CN3CCOCC3)cc2)ccc1OC	-19.1
COc1cccc(NC(=O)c2ccccc2NS(C)(=O)=O)c1	-13.8
O=C(Cn1nc(-c2ccccc2)c2ccccc2c1=O)Nc1cccc(O)c1	15.9
Cc1nc2ncnn2c(C)c1C/C=C/c1ccccc1	-15.3
O=C(CN1C(=O)NC2(CCCCC2)C1=O)Nc1nc2c(F)cc(F)cc2s1	5.66
COc1ccc(C(=O)NC(=S)Nc2cc3oc4ccccc4c3cc2OC)cc1	3.87
CN(C)C(=O)Oc1cc(OC(=O)N(C)C)cc(C(O)CNC(C)(C)C)c1 (stereo not drawn)	14.8
Cn1c(-c2sccc2OCc2ccc(Cl)cc2Cl)n[nH]c1=S	-12.8
Cc1ccc(C(=O)NCN2CCN(c3ccc(F)cc3)CC2)cc1	-28.9

SMILES	hERG current change (%, negative = inhibition) at 10uM [%]
N=c1c(C(=O)NC2CCCCC2)cc2c(=O)n3ccccc3nc2n1Cc1ccc(F)cc1	-77
CCN(CC)S(=O)(=O)c1cccc(N=Nc2c(O)c3ccccc3oc2=O)c1	1.63
COc1ccc(Cl)cc1NC(=O)CN(C)C(=O)CNC(=O)C12CC3CC(CC(C3)C1)C2	-16.3
OCC1(Cc2ccc(Cl)cc2)CCN(CCCc2ccccc2)CC1	-83.9
O=S(=O)(c1ccc(F)cc1)N1CCCc2ccccc21	-9.32
O=C(c1cccc(-n2cnnn2)c1)N1CC=C(c2ccccc2)CC1	-37.8
CC(C)(C)NC(=O)C(=O)NNC(=O)c1cccc(Br)c1	-0.74
Cc1cc(=O)oc(C)c1C(=O)NC12CC3CC(CC(C3)C1)C2	-2.85
CCCCOc1ccc(Cl)cc1CSc1nnc(CC)n1N	-9.66
O=C(NCc1cccc(Cl)c1)C1CCCN(c2ncnc3c2nc2n3CCCCC2)C1 (stereo not drawn)	-73.5
Clc1ccc2nc(CSc3nnc4ccccn34)cn2c1	-16
Cc1nnc(N/N=C/C(C)c2ccccc2)[nH]c1=O (stereo not drawn)	5.89
CCn1c(COc2ccc3c(c2)CCCC3)nnc1SCC(=O)Nc1nccs1	-4.08
CCOC(=O)C1(C)Oc2ccc(S(=O)(=O)CC)cc2NC1=O (stereo not drawn)	-0.937
COc1cccc(NC(=O)CN2CCC(C)CC2)c1	1.52
COc1ccc(C(=O)N2CCN(C(=O)c3ccco3)CC2)cc1OC	-9.09
CC(NC(=O)CSc1ncccn1)c1ccc(Cl)cc1Cl (stereo not drawn)	60.5
CCOC(=O)c1cnc2c(F)ccc(F)c2c1Sc1ccccc1	2.92
COc1ccc(NC(=O)CN(C)Cc2c(F)cccc2Cl)cc1S(=O)(=O)N1CCCCC1	-0.247
O=c1c2ccccc2c(C=NC2CCN(Cc3ccccc3)CC2)c(O)n1Cc1ccc2c(c1)OCO2	1.95
O=S(=O)(c1cccs1)N1CN(Cc2cccs2)c2nc3ccccc3nc21	-1.51

SMILES	hERG current change (%, negative = inhibition) at 10uM [%]
CC(=O)Nc1ccc(C(O)(C(F)(F)F)C(F)(F)F)cc1	4.91
O=C(COc1cccnc1[N+](=O)[O-])Nc1ccc(N2CCOCC2)cc1	-6.48
CCCCOCC(O)Cn1c(C)nc2ccccc21.O=C(O)C(=O)O (stereo not drawn)	1.95
C=CCN1c2ccccc2[C@]23C[C@@H](C(=O)OC)N(C(=O)c4ccc(Br)cc4)C2=NC(C(=O)OC)=C(C(=O)OC)[C@H]13	-5.86
CC(C)(C)NC(=O)c1ccc2c(c1)N(CC(=O)N1CCCCC1)C(=O)C(C)(C)O2	16.3
Cc1ccc(C(C)C)c(OCC(=O)OCc2c(C)noc2C)c1	-1.39
CCOC(=O)c1c(-c2ccc(-c3ccccc3)cc2)csc1NC(=O)c1cccc(N2C(=O)CCC2=O)c1	17.4
Cc1ccc(C(=O)N(Cc2ccc3c(c2)OCO3)Cc2nc3ccccc3c(=O)[nH]2)cc1	-24
COc1cccc(CCNCc2ccc(SC)cc2)c1.O=C(O)C(=O)O	-67.7
CSc1ccccc1OCc1cc(C(=O)NCCCc2ccccc2)no1	12.9
COC(=O)c1cccc(C(=O)Nc2ccc(C)cc2)n1	-7.93
O=C(NC1CC1)C1CCN(S(=O)(=O)c2ccc(Cl)cc2)CC1	-2.36
O=S(=O)(NCCn1ccc2ccccc21)c1ccccc1	-28.5
CC1CCc2nc(NC(=O)CN3CCN(Cc4ccc5c(c4)OCO5)CC3)sc2C1 (stereo not drawn)	-66.7
COC(=O)C1=C(CS(=O)(=O)c2cc(Cl)ccc2OC)NC(=O)NC1c1ccc(O)c(OC)c1 (stereo not drawn)	18.6
CCOc1ccc(CN(C)C(=O)c2ccc(=O)[nH]c2)cc1	16.6
Cc1ccc(NC(=O)c2cc3c(s2)CCCC3)cc1S(=O)(=O)Nc1ccccc1Cl	-1.3
CCOC(=O)CCNC(=O)N1CCCC(N2CCN(c3ccc(OC)cc3)CC2)C1 (stereo not drawn)	3.6
COc1cccc(NC(=O)CN(C)C(=O)CCc2nc3sc4c(c3c(=O)[nH]2)CCCC4)c1	1.87
CC(OC(=O)COc1ccc(Nc2ccccc2)cc1)C(=O)N(C)c1ccccc1 (stereo not drawn)	24.6
CCN(C(=O)Cc1cccs1)c1nnc(-c2cccnc2)s1	-8.94
